Here are results for 57 molecules from publication PMC4336329 (PLoS ONE, 2015).

Screen size: about 310,000 compounds; about 2,200 (0.71%) showed an effect of 50% or more. Effects have a minus sign here. Some of the results follow.

Sequence of human ether-à-go-go-related gene (hERG) potassium channel (Q12809 whole entry, looked up): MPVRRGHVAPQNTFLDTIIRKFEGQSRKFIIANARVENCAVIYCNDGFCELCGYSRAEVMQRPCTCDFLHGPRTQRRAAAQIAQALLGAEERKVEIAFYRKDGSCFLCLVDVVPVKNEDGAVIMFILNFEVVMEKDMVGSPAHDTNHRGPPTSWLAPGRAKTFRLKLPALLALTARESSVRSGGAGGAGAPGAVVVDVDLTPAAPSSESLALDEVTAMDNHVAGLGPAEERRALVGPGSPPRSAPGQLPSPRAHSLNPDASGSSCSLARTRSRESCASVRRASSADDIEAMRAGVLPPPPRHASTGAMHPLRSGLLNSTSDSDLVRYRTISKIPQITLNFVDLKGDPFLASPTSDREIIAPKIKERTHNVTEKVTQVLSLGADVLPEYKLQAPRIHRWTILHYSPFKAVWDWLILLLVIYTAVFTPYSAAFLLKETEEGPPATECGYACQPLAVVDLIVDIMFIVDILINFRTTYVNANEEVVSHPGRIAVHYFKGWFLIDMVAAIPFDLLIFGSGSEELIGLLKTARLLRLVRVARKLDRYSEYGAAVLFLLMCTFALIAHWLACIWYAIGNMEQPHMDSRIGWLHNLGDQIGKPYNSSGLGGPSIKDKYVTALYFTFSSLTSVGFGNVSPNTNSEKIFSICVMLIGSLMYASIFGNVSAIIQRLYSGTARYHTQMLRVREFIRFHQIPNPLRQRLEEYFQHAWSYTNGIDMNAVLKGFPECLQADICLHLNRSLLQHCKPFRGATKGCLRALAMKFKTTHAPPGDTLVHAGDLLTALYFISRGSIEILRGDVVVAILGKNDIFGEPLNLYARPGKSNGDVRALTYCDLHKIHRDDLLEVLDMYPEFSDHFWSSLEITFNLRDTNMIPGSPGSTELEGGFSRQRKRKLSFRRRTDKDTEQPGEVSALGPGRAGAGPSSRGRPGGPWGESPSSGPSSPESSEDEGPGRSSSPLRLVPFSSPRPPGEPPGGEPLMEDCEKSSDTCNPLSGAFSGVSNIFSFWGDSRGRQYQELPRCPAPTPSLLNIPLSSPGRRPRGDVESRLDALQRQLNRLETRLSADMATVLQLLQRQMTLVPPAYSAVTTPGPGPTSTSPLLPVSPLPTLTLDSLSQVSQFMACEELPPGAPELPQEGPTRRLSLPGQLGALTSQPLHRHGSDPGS

The assay has as its target human ether-à-go-go-related gene (hERG) potassium channel (human, UniProt Q12809). The assay is described as follows: primary screen, population patch clamp on CHO cells stably expressing hERG.
For the molecule `CC1(NC(=O)Cc2csc(-c3cccc(Cl)c3)n2)CCS(=O)(=O)C1` (stereo not drawn), the “hERG current change (%, negative = inhibition) at 1uM” value was determined as 14.1%. The same measure for `O=C(NCc1ccccc1)c1cccc(COc2cccc(Cl)c2)c1`: 7.36%. The same measure for `O=c1c2ccccc2sc2ccc(C#CC3(O)CCCCC3)cc12`: 12.3%; for `CSCC[C@H](N)C(=O)N1CCC(C(=O)N[C@@H](Cc2c[nH]c3ccccc23)C(=O)O)CC1`: 1.27%; for `Cn1nnnc1-c1cc(Cl)cc(Cl)c1`: 11.8%. Under `Cn1c(SCC(=O)Nc2ccccc2F)nnc1-c1cccs1` stands 6.57%; under `CCCc1nc2ccc(NC(=O)NCCC(=O)OCC)cc2c(=O)n1Cc1cccc(Cl)c1`, -3.49%; under `COC(=O)c1ccc(/C=C2/SC(=S)N(CCCC(=O)Nc3ccc(O)cc3)C2=O)cc1`, 13.5%. `O=S(=O)(Nc1ccc(O)cc1)c1cccc2cccnc12`: the “hERG current change (%, negative = inhibition) at 1uM” value came out at 12.1%.

In the case of `CCOc1ccc(NC(=S)NN2C(C)CCCC2C)cc1` (stereo not drawn), the “hERG current change (%, negative = inhibition) at 1uM” value worked out at 4.48%. The same measure for `Cc1nc(C(F)(F)F)ccc1C(=O)NCC(O)c1ccccc1` (stereo not drawn): 3.72%; for `COCC(=O)N1CCCC(C(=O)c2ccc(-c3ccccc3)c(F)c2)C1` (stereo not drawn): -4.64%.

On to `COc1ccc(Nc2nnc(C)c3ccccc23)cc1`, for which the “hERG current change (%, negative = inhibition) at 1uM” value is listed as 9.56%.

Consider `COc1cccc(/C=N/NC(=O)c2c(-c3ccccc3)noc2C)c1`, for which the “hERG current change (%, negative = inhibition) at 1uM” value came out at 5.95%. As for `COc1ccc(-c2cn3ccccc3n2)cc1[N+](=O)[O-]`, the “hERG current change (%, negative = inhibition) at 1uM” value is 6.58%. Under `CCOC(=O)N1CCN(C(=O)CSc2ccc3nnc(-c4ccncc4)n3n2)CC1` stands -4.9%; under `COC(=O)/C=C1\SC(=Nc2ccc(Cl)c(Cl)c2)NC1=O`, 17.1%; under `COC(=O)c1cc(S(=O)(=O)Nc2nn(C)c3cccc(F)c23)oc1C`, 16.7%. Under `Clc1ccc(-c2noc3c2-c2nc(Cc4cccc5ccccc45)sc2CC3)cc1` stands 4.87%. Take `COc1ccc(NC(=O)CCCNC(=O)Cn2cnc3sc4c(c3c2=O)CCCC4)c(OC)c1`: the “hERG current change (%, negative = inhibition) at 1uM” value is reported as 7.59%. Under `CCOC(=O)N1CCN(c2c(NCCCN(CC)c3cccc(C)c3)c(=O)c2=O)CC1` stands 1.77%. Under `Cc1ccccc1/[N+]([O-])=C/c1ccncc1` stands 13.6%; under `CC(C)c1ccc(NCCC(=O)c2ccc(Br)cc2)cc1`, 7.33%; under `COc1ccc(C(=O)COC(=O)c2cc(C)no2)c(OC)c1`, 10.4%. For the molecule `Cc1cc(C(=O)NNC(=O)c2ccc(Cl)cc2)c2ccccc2n1`, the “hERG current change (%, negative = inhibition) at 1uM” value is 5.97%.

On to `CC(C)N(C(=O)COC(=O)c1ccccc1C(=O)N1CCN(c2ccc(F)cc2)CC1)C(C)C`, for which the “hERG current change (%, negative = inhibition) at 1uM” value is recorded as -9.42%. The same measure for `CCC(=O)NCCc1nc2ccccc2n1Cc1ccccc1`: 12.6%; for `CCOc1ccc(S(=O)(=O)N2CCCCC2)cc1NC(=O)C1COc2ccccc2O1` (stereo not drawn): 14.1%. Under `CCOc1ccc(NC(=O)Cn2nnc(C(=O)NCc3ccc4c(c3)OCO4)c2N)cc1` stands 10.1%; under `Cc1nn(CC(O)c2ccccc2)c(C)c1Br` (stereo not drawn), 8.19%; under `Cc1ccc(NC(=O)C2C3C=CC4(O3)C2C(=O)N(CCCN2CCCCC2)C4C(=O)NC2CCCCC2)cc1Cl` (stereo not drawn), 12.9%. In the case of `CCCCCCCCS(=O)C1CS(=O)(=O)CC1O` (stereo not drawn), the “hERG current change (%, negative = inhibition) at 1uM” value is 7.4%. As to `CCCC(=O)Nc1nc2c(C)c(Cl)ccc2s1`, the “hERG current change (%, negative = inhibition) at 1uM” value is reported as 6.64%. The same measure for `COc1ccc(OC)c(C(Nc2ccccc2)P(=O)(OC(C)C)OC(C)C)c1` (stereo not drawn): 4.04%; for `Cc1nc(Nc2ccccc2Cl)sc1C(=O)Nc1ccccc1`: 4.06%. Take `Cc1cccc(C)c1NC(=S)N(CCN(C)C)Cc1cccs1`: the “hERG current change (%, negative = inhibition) at 1uM” value is -8.98%.

`CCCCN(CC)CCCNC(=O)Cn1nc(Cc2cccnc2)c2ccccc2c1=O`: the “hERG current change (%, negative = inhibition) at 1uM” value stood at 17.1%. As for `O=C(Cc1cccs1)NCc1ccc(F)cc1`, the “hERG current change (%, negative = inhibition) at 1uM” value is listed as -1.33%. Regarding `Cc1nn(CC(=O)NNC(=S)Nc2ccccc2)c(C)c1[N+](=O)[O-]`, the “hERG current change (%, negative = inhibition) at 1uM” value was determined as 3.31%. Consider `COc1ccccc1C(=O)C1CCCN(C(=O)c2cccc(Cn3cccn3)c2)C1` (stereo not drawn), for which the “hERG current change (%, negative = inhibition) at 1uM” value stood at 0.936%. Regarding `CSc1nc(C)cc(OCC(=O)n2nc(C)cc2C)n1`, the “hERG current change (%, negative = inhibition) at 1uM” value amounted to 6.6%. In the case of `O=[N+]([O-])c1ccc(N/N=C/c2ccccc2)c(F)c1`, the “hERG current change (%, negative = inhibition) at 1uM” value amounted to 11.3%. `O=C(O)c1ccc(N2C(=O)CSC2c2cccc([N+](=O)[O-])c2)cc1` (stereo not drawn): the “hERG current change (%, negative = inhibition) at 1uM” value was determined as 13.3%. Under `Cc1cc(C)nc(Nc2nc(-c3ccccc3)cs2)n1` stands 14.7%; under `O=C1COc2ccc(C(=O)C[n+]3cccc(O)c3)cc2N1.[Cl-]`, 7.37%. The same measure for `CCn1ncc(C2=NOC(C(=O)Nc3ccc4c(c3)OCO4)C2)c1C` (stereo not drawn): 5.18%; for `COc1ccc(-n2nnc3c(=O)n(CC(=O)Nc4cc(C)on4)cnc32)cc1OC`: 7.43%; for `O=C(COc1ccccc1Cl)N1CCN(c2ccc([N+](=O)[O-])c(N3CCCCC3)c2)CC1`: 0.717%. The same measure for `Cc1cc(C)c(NC(=S)N(C)C)c(C)c1`: 9.4%; for `C/C(N)=C(/C#N)C(=O)COC(=O)CC1CCCC1`: 6.01%; for `Cc1ccc(S(=O)(=O)NCCCOC(=O)Nc2ccncc2)cc1`: 2.07%. `COc1ccc(-n2c(-c3cnccn3)n[nH]c2=S)cc1`: the “hERG current change (%, negative = inhibition) at 1uM” value is given as 9.44%. `CC(C)c1cc(=O)[nH]c(N2CCN(Cc3ccc4c(c3)OCO4)CC2)n1`: the “hERG current change (%, negative = inhibition) at 1uM” value is on record as 8.53%. The same measure for `Nc1ncnc2c1ncn2[C@H]1CC[C@@H](CO)O1`: 14.3%.

Take `O=C(O)CCc1ccc(-c2cccs2)n1NC(=O)c1ccccc1Br`: the “hERG current change (%, negative = inhibition) at 1uM” value is given as 2.9%. For the molecule `COCCNC(=O)c1cc2sc3ccccc3c2s1`, the “hERG current change (%, negative = inhibition) at 1uM” value is given as -3.94%.

Turning to `O=C(C1=C[C@@H](c2csc3ccccc23)C[C@@H](OCc2ccc(CO)cc2)O1)N1CCOCC1`, the “hERG current change (%, negative = inhibition) at 1uM” value is recorded as -6.94%.
